From the RNAGym collection of RNA variant scans (doi:10.7554/elife.90254)
The source gives no read counts; variants with many changes may rest on few reads.

B1: LINE1-mini (parent)
chain: GGCAGAGCUCAACACAGCGUGGCAAAGUGGCUGUGGCUAGACUGCC

Variants of: B1
Test: self-cleavage, relative activity (ratio to wild type); higher = more cleavage; in vitro, sequencing; the parent is a self-cleaving ribozyme
GGCAGAGCUCAACACAGCGUUGCAAAUUGGCUGGGGCUAGACUGCC showed a self-cleavage of 0.09. With GGUACAGCUCAACACACCGUGGCAAAGUGGCUGUGGCUAGACUGCC the self-cleavage was 0.07. Work on GGCACAGCUCAACACAGCGUGGCAACGUGGCAAUGGCUAGACUGCC yielded a self-cleavage of 0.08. For GGCAGAGCCCAACACAGCGUGGCAAGGUGGCUGUCGCUAGACUGCC, the self-cleavage was 0.02. With GGCAGAGGUCAACACUGCGUAGCAAAGUGGCUGUGGCUAGACUGCC the self-cleavage was 0.01. GGCAGAGCUCAACAAGGCGUGGCAAAGUGGCUGUGGCUAGAUUGCA gave a self-cleavage of 0.02. For GGCACAGCUCAACACGCCGUGGAAAAGUAGCUCUGGCUAGACUGCC, the self-cleavage was 0.03. With GGCAGGGUUCCACACAGCAUGGGAAAGUUGCUGUGGCCAGACUGCC the self-cleavage was 0. Work on GGCAGAGCUCAGUACAGCAUUGCAAAGUGGCUGUGGCUAGACUGCC yielded a self-cleavage of 0.04. GGUAGAGCUCAACACAGCGUGGUAGAGUGGCUGUGGUUAGACUUCC gave a self-cleavage of 0.15. Variant GGCAGACCUCAACACAGCGUGGCAAAGUUGCUGUUCCUAGACUGCC has a self-cleavage of 0.06. GGCAGAGCUCAAGACAACGCGGCAAAGUGGCUGUGGCUAGACUGCC showed a self-cleavage of 0.02. Work on GGCAGAGCUCCUCACAGCGUGGCAAAGUGGCUGGGGCUAGGCUGCC yielded a self-cleavage of 0.01. In the case of GGCAGGGCUCAACACAGCCUGGCAAAGUGGCUGUGGCUGGACUGCC, the self-cleavage is reported as 0. With GGCAGAGCUCAACACAGCGAUGCAAAUUGCCUGUGGCUAGACUGUC the self-cleavage was 0.7. Variant GGCAGAGCUCAACACAGCGUUGCAAAGUGUGUGUGGCUAGACUGCC has a self-cleavage of 0.06. For GGCAAAGCUCAACACAGCGUGUCUAAGUGCCAGUGGCCAGACUGCC, the self-cleavage was 0.02. CGCAGAGCUCAUCACAGCGUGGCAAAGUGGCUGUGGCUAGACUGCA showed a self-cleavage of 0.05. GGCAGAGCUCAACACUGCGUGGCAAAGUGGCUGUGGCUAAACAGAC gave a self-cleavage of 0.01. In the case of AGCAGAGGUCAACAAAGCGUCGCAAAGUGGCUGUGGCUAGACUGCC, the self-cleavage is reported as 0.32. GGCAGAGCUCAACCCAGCGUGGCAAAGAGGCUGUGGCUAGCCUGCC showed a self-cleavage of 0.01. GGCUAAACUCAACACAGCGUGGCAAAGUGGCUGUGGCUAGACAGCC showed a self-cleavage of 0.12. For GGCACAGCUCAAGACAGCGUGGCAAGGUGGCUGUCGCCAGACUGCC, the self-cleavage was 0. Variant GGCAGAGCUCAACACACCGUGGCAAAGUGCCUGUGACUAGACUGCC has a self-cleavage of 0.03. In the case of UGCUGAGCUUAACACUGCGUGGCAAAGUGGCGGUGUCUAGACUGCC, the self-cleavage is reported as 0.05. With GGCAGAGCUCAACACAGCUUGGUAAAAUCGCUGUGGCUAGACUGCC the self-cleavage was 0.29. With GGCAGAGUUCAACACAGGGUGGCAAAGUGGCUGUGGCUACACUGCC the self-cleavage was 0.08. With GGCAGAGCUCAACAGAGCGUGGCAAAGUGUCCGUGGCUAGACUGCC the self-cleavage was 0.07. Variant AGCAGAACUUAACACAGCGUGGCAAAGUGGCUGUGGCUAAACUGCC has a self-cleavage of 0.03. Work on CGCGGAUCUCAACACAGCGUGGCAAAGUAGCUGUGGCUAGACUGAC yielded a self-cleavage of 0.01. GGCAGAGAUCAACACACCGUGGCAAAGUGGCUGUGGCUAGACUGUC showed a self-cleavage of 0.06. With GGUAGAGGUCAACACAGCGUGGUAAUGUGGCUGUGGCUAGACUGCC the self-cleavage was 0.66. In the case of GGUAGAUCUCGACACAGCAUAUCAAAGUGGAUGUGGCUAGACUGCC, the self-cleavage is reported as 0.02. Work on GGCAGAGCUCAACAGAUCGUGGCAAAGCGGCUGUGGCCAGACUGCC yielded a self-cleavage of 0.09. For UGCAGAGCUCAACACAGUGUGUCAAAGUGGCGGUAGCUCGACUGCA, the self-cleavage was 0.02. In the case of GGCAGAGCUUAACACAGCGUGGCAAAGUGGGUGUGGCUUGCAUGCC, the self-cleavage is reported as 0.03. Variant AGCAGAGCUCAACACAGCGUGGCAAAUUGCCUCUGGCUAGACAGCC has a self-cleavage of 0.03. GGCAGAGCUCAACAUAGCCUAGAAUAGUGGCUGUGGCUAGACUGCC gave a self-cleavage of 0.21. In the case of GGCAGAGCUCAACGAAUCCUGACAAAGUGGCUGUGGCUAGACUGCC, the self-cleavage is reported as 0.12. GGCAGAGCUCAACACAGGGUGUCAAAGUGGCUGUGGCUAGAAUGCC gave a self-cleavage of 0.01. GGAAGAGCUUAUCACAGCGUGGCAAAGUGGCUGUGGCUAGAGUGCC showed a self-cleavage of 0.02. For GGCAGAGCUCAACACAGCGUGGCACAGUGCCUGUGGCUAGACUGCA, the self-cleavage was 1.06. Work on GGCAGAGCUCAGCACAGGGUGGCAAAGUGGCUCUGGCUAGCCUGCC yielded a self-cleavage of 0.01. For GGCAGAGCUCAACUAAGCGUGGAAAAAUGGCUGUGGCUAGACUGCC, the self-cleavage was 0.21. For GGCAGAGCUUAACACUGCGUGGGAAAGUGGCUGUGGCUAGUCUGCC, the self-cleavage was 0.03. With GGCACAGCUCAACACAGCGGGGGAAAGUGGCUGUGGCUAGACUGCC the self-cleavage was 0.04. Variant GGCAGAGCUCAACACAGUGUGGGAAAGUGGCUUUGGCUAGACUGAC has a self-cleavage of 0.02. Variant GGAAGAGCUCAACACAGCGUGGCAAACUGGCUGCGGCUAGACUGCU has a self-cleavage of 0.29. GGCAGAGCUCAACAUAGCGUGGCAAAUUGGCUGUGGAUAGACUGCC showed a self-cleavage of 0.15. For GGCAGAGAUCAACUCAGCGUGGCAAAGUGGCUGUGGCUACACUGCC, the self-cleavage was 0.23. With CGCGGAGCUCAACACAGCGGGGCAAAGUGGCUGCGGCUAGACUGCC the self-cleavage was 0.01. For GGGAGAGCUAAACACAGCGUCGCAAAGUGGCUGUGGCUAGAGUGCC, the self-cleavage was 0.01. GGCAGAGCCCAAAACAGCUGGGCAAAGUGGCUGUGGCUAGACUGCC gave a self-cleavage of 0.03. Work on AGCAGAGCUUAACACAGCGUGGCAAAGUAGCUGUGGCUAGACUGCC yielded a self-cleavage of 0.52. Work on GUAAGAGUUCAACACAGCGUGGCAAAGUGGCUGUGGCUAGACAGCU yielded a self-cleavage of 0.41. Work on GGCACAGCGCAACACCGCGUGGCAAAGUGGCUGUGGCUAGACUGCC yielded a self-cleavage of 0.09.
